Among the data in PubChem BioAssay AID1346428 (National Center for Advancing Translational Sciences (NCATS), 2018) are activation values, retold here.

Structures are written as SMILES. In all, about 48,000 compounds went through this assay and about 1,200 (2.5%) were called active. Another 2% or so got no clear call; they are omitted.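 The calls were made as follows: active = activation of at least 60% and not above a set upper limit (about 1 call in 100 departs from these limits); inconclusive = activation of 40% to 60%, or above that upper limit; inactive = activation under 40%.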 The list shows a part of the results.

The target in this experiment is Probable G-protein coupled receptor 32 (Homo sapiens) (UniProt O75388). In words: qHTS for Agonists of Human Resolvin D1 Receptor DRV1. Also: 0% is about no effect. Particulars: CHO-K1 GPR32 beta-arrestin PathHunter luminescence, 90 min; at 76.9 µM; stronger effect = higher value; zero percent set by DMSO-only wells. Put shortly: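 PathHunter beta-arrestin recruitment in CHO-K1 cells stably expressing ProLink-tagged GPR32. Cells were exposed to compound for 90 min at 37 C, then chemiluminescence was read after 1 h detection at ambient temperature; DMSO served as basal control.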
Chain of UniProt O75388 (O75388 whole entry, looked up): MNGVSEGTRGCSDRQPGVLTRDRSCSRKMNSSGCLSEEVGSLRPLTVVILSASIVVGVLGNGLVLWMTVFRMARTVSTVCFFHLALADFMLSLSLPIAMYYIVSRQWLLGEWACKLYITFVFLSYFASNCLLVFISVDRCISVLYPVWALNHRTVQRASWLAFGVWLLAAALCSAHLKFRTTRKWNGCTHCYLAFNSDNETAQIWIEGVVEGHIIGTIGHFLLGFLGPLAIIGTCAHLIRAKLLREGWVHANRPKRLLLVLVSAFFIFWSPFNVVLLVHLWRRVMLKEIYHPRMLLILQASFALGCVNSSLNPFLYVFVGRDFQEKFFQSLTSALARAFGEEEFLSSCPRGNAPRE
In general terms: Quantitative high-throughput screening tests each substance at several concentrations.
Regarding `Cc1cccc(/C=C(\C#N)c2nc3ccccc3c(=O)[nH]2)c1`, the activation is inactive: 0.249%.
For `O=C(CCS(=O)(=O)c1ccccc1)N(Cc1cccnc1)c1nc2ccc(Cl)cc2s1`, the activation is inactive: -6.47%.
As to `COc1ccc(N2CCN(CCCNC(=O)c3cc(Nc4ccc(OC)cc4OC)nc4ccccc34)CC2)cc1`, the activation is inactive: -14%.
As for `CCCN1Cc2cccc(C(=O)Nc3ccc(C(C)=O)cc3)c2C1=O`, the activation was inactive: 9.85%.
With `Cc1cccc(-n2c(=O)c3c(c4cc(C)ccc4n3C)n(CC(=O)N3CCCC3)c2=O)c1` the figure was inactive: 7.29%; with `CCOc1ccc(N(CC)S(=O)(=O)N2CCCC(C(=O)Nc3ccc(C(C)=O)cc3)C2)cc1` (stereo not drawn), inactive: 2.13%.
As to `O=C(CN1C(=O)COc2ccccc21)NCCc1ccc(Cl)cc1`, the activation was inactive: -3.65%.
`CCc1ccc(-n2c(=O)c3c4c(sc3n(CC(=O)N3CCCCC3CC)c2=O)CCC4)cc1` (stereo not drawn): the activation was inactive: -18.6%.
In the case of `Cc1ccc(CNC(=O)c2ccc(NC(=O)N3CCSc4ncccc43)cc2)cc1`, the activation is inactive: 35%.
On to `Cc1c(C(=O)Nc2cccc(Cl)c2)sc2nc3n(c(=O)c12)N=C(c1cccc(Br)c1)CS3`, for which the activation was inactive: 19.2%.
On to `Cc1c(CCC(=O)NCCc2ccc(Cl)cc2)c(=O)oc2c(C)c(O)ccc12`, for which the activation is inactive: 25.6%.
As for `Cc1c(CNC2CCCCC2)c(C(=O)O)c(C)n1Cc1cccc(Cl)c1`, the activation is inactive: -3.66%.
With `CCOc1ccccc1NC(=O)c1nc(SC(C)C)ncc1Cl` the figure was inactive: -2.24%.
As for `CCc1ccc(NC(=O)CN2C(=O)C(c3ccc(Cl)cc3)=NC23CCCCC3)cc1`, the activation was inactive: -10.9%.
As to `Cc1ccc(NC(=O)Cn2c(=O)n(Cc3nc(C)no3)c(=O)c3ccccc32)c(Cl)c1`, the activation was inactive: -18%.
For the compound `Cc1cccc(C)c1OCCCn1c(CCNC(=O)C2CCCCC2)nc2ccccc21`, the activation was inactive: 15.6%.
Turning to `COc1ccc(-n2c(C)c(C(C)=O)c3cc(OC(=O)COc4ccccc4)ccc32)cc1`, the activation is inactive: 3.41%.
The same measure for `CCC(Oc1ccccc1)C(=O)Nc1cc(-c2cccc(C)c2)nn1-c1ccccc1` (stereo not drawn): inactive: -11.9%.
For `CCCCCn1c(CCNC(=O)c2ccc(F)cc2)nc2ccccc21`, the activation is inactive: 19.8%.
As to `CCOCCCNC(=O)c1cnc2sc(N3CCCCC3)nn2c1=O`, the activation is inactive: -6.4%.
As for `Cc1cc(-c2ccc(C)c(S(=O)(=O)NCc3cccc(Br)c3)c2)on1`, the activation was inactive: -21.7%.
For the compound `CCCS(=O)(=O)N1CC(=O)N(c2cccc(Cl)c2C)C(C)(C(=O)NC2CCCC2)C1` (stereo not drawn), the activation is inactive: -0.709%.
Consider `Cc1cc(C)cc(OCC(=O)N(Cc2cccs2)c2ccc(Cl)cc2)c1`, for which the activation is inactive: -39.4%.
